Reference: paper PMC12820563, “FoxP3 forms a head-to-head dimer in vivo and stabilizes its multimerization on adjacent microsatellites”
This is one part of the list.

Target: T1, MBP-FoxP1dN (Mus musculus, UniProt P58462 326-579)
T1 sequence: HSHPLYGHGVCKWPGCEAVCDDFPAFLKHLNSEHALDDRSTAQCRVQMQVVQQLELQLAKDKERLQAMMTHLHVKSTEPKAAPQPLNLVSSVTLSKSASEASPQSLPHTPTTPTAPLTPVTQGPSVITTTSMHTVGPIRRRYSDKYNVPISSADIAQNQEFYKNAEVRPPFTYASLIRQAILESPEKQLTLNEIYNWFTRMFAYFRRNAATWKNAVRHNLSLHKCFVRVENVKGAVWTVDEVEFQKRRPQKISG
Experiment: PD-seq (MBP pull-down with sequencing); 20 mM Tris-HCl pH 7.5, 100 mM NaCl, 1.5 mM MgCl2, 0.4 uM protein, 0.1 uM dsDNA library, 30 min, room temperature, amylose pull-down; high values mean tight binding
Conditions: protein: recombinant; tags: His6-MBP; chain copies: 2; dsDNA, one strand shown
Method in brief: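 His6-MBP-tagged mouse FoxP3 or FoxP1 fragment lacking the N-terminus, expressed in E. coli, was mixed at 0.4 µM with 0.1 µM Klenow-filled double-stranded degenerate DNA library. Incubation was 30 min at room temperature in Tris pH 7.5 buffer with NaCl and MgCl2. Complexes were caught on amylose resin and washed three times; DNA was released with proteinase K, PCR-barcoded and Illumina-sequenced. Binding is reads-per-million enrichment, pull-down over input, with replicates pooled.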

Sequence	binding signal
GATGATTGTTCTCCCAGCTGATGAATTAGACGGCTCGAGTAAACAAATTTTCCTAATCTTTCTGTTCAAGCGCCATCTAC	0.845 RPM ratio (pull-down/input)
GATGATTGTTCTCCCAGCTGATGAATTGTATCCGTCGAGTAAACAAATTTTCCTAATCTTTCTGTTCAAGCGCCATCTAC	0.976 RPM ratio (pull-down/input)
GATGATTGTTCTCCCAGCTGATGAATTGGGCACATCGAGTAAACAAATTTTCCTAATCTTTCTGTTCAAGCGCCATCTAC	1.01 RPM ratio (pull-down/input)
GATGATTGTTCTCCCAGCTGATGAATTCTACAGGTCGAGTAAACAAATTTTCCTAATCTTTCTGTTCAAGCGCCATCTAC	0.727 RPM ratio (pull-down/input)
GATGATTGTTCTCCCAGCTGATGAATTGAAGCTGTCGAGTAAACAAATTTTCCTAATCTTTCTGTTCAAGCGCCATCTAC	0.938 RPM ratio (pull-down/input)
GATGATTGTTCTCCCAGCTGATGAATTTCGCGCATCGAGTAAACAAATTTTCCTAATCTTTCTGTTCAAGCGCCATCTAC	1.15 RPM ratio (pull-down/input)
GATGATTGTTCTCCCAGCTGATGAATTCACGAGGTCGAGTAAACAAATTTTCCTAATCTTTCTGTTCAAGCGCCATCTAC	0.748 RPM ratio (pull-down/input)
GATGATTGTTCTCCCAGCTGATGAATTGCGTTTGTCGAGTAAACAAATTTTCCTAATCTTTCTGTTCAAGCGCCATCTAC	1.23 RPM ratio (pull-down/input)
GATGATTGTTCTCCCAGCTGATGAATTGGGCGACTCGAGTAAACAAATTTTCCTAATCTTTCTGTTCAAGCGCCATCTAC	0.776 RPM ratio (pull-down/input)
GATGATTGTTCTCCCAGCTGATGAATTCCACGATTCGAGTAAACAAATTTTCCTAATCTTTCTGTTCAAGCGCCATCTAC	0.904 RPM ratio (pull-down/input)
GATGATTGTTCTCCCAGCTGATGAATTCTCCACTTCGAGTAAACAAATTTTCCTAATCTTTCTGTTCAAGCGCCATCTAC	0.886 RPM ratio (pull-down/input)
GATGATTGTTCTCCCAGCTGATGAATTCTAAGGATCGAGTAAACAAATTTTCCTAATCTTTCTGTTCAAGCGCCATCTAC	0.737 RPM ratio (pull-down/input)
GATGATTGTTCTCCCAGCTGATGAATTAGATTCCTCGAGTAAACAAATTTTCCTAATCTTTCTGTTCAAGCGCCATCTAC	0.891 RPM ratio (pull-down/input)
GATGATTGTTCTCCCAGCTGATGAATTTTCAAGATCGAGTAAACAAATTTTCCTAATCTTTCTGTTCAAGCGCCATCTAC	0.859 RPM ratio (pull-down/input)
GATGATTGTTCTCCCAGCTGATGAATTGCTTGGTTCGAGTAAACAAATTTTCCTAATCTTTCTGTTCAAGCGCCATCTAC	1.06 RPM ratio (pull-down/input)
GATGATTGTTCTCCCAGCTGATGAATTCGTAAGCTCGAGTAAACAAATTTTCCTAATCTTTCTGTTCAAGCGCCATCTAC	0.838 RPM ratio (pull-down/input)

Sequence	binding signal
GATGATTGTTCTCCCAGCTGATGAATTAACATCGTCGAGTAAACAAATTTTCCTAATCTTTCTGTTCAAGCGCCATCTAC	0.998 RPM ratio (pull-down/input)
GATGATTGTTCTCCCAGCTGATGAATTTAATACCTCGAGTAAACAAATTTTCCTAATCTTTCTGTTCAAGCGCCATCTAC	0.884 RPM ratio (pull-down/input)
GATGATTGTTCTCCCAGCTGATGAATTCAGACCCTCGAGTAAACAAATTTTCCTAATCTTTCTGTTCAAGCGCCATCTAC	0.807 RPM ratio (pull-down/input)
GATGATTGTTCTCCCAGCTGATGAATTCTAATTATCGAGTAAACAAATTTTCCTAATCTTTCTGTTCAAGCGCCATCTAC	1.22 RPM ratio (pull-down/input)
GATGATTGTTCTCCCAGCTGATGAATTCTAGTATTCGAGTAAACAAATTTTCCTAATCTTTCTGTTCAAGCGCCATCTAC	1.11 RPM ratio (pull-down/input)
GATGATTGTTCTCCCAGCTGATGAATTCCATTCGTCGAGTAAACAAATTTTCCTAATCTTTCTGTTCAAGCGCCATCTAC	0.864 RPM ratio (pull-down/input)
GATGATTGTTCTCCCAGCTGATGAATTCTAAACGTCGAGTAAACAAATTTTCCTAATCTTTCTGTTCAAGCGCCATCTAC	1.01 RPM ratio (pull-down/input)
GATGATTGTTCTCCCAGCTGATGAATTAAATCGGTCGAGTAAACAAATTTTCCTAATCTTTCTGTTCAAGCGCCATCTAC	0.944 RPM ratio (pull-down/input)
GATGATTGTTCTCCCAGCTGATGAATTACCTATGTCGAGTAAACAAATTTTCCTAATCTTTCTGTTCAAGCGCCATCTAC	1 RPM ratio (pull-down/input)
GATGATTGTTCTCCCAGCTGATGAATTTGAGAGATCGAGTAAACAAATTTTCCTAATCTTTCTGTTCAAGCGCCATCTAC	0.777 RPM ratio (pull-down/input)
GATGATTGTTCTCCCAGCTGATGAATTCCTTACTTCGAGTAAACAAATTTTCCTAATCTTTCTGTTCAAGCGCCATCTAC	0.847 RPM ratio (pull-down/input)
GATGATTGTTCTCCCAGCTGATGAATTTAATAGCTCGAGTAAACAAATTTTCCTAATCTTTCTGTTCAAGCGCCATCTAC	0.957 RPM ratio (pull-down/input)
GATGATTGTTCTCCCAGCTGATGAATTGGAAGGATCGAGTAAACAAATTTTCCTAATCTTTCTGTTCAAGCGCCATCTAC	0.819 RPM ratio (pull-down/input)
GATGATTGTTCTCCCAGCTGATGAATTCGTGCTCTCGAGTAAACAAATTTTCCTAATCTTTCTGTTCAAGCGCCATCTAC	0.844 RPM ratio (pull-down/input)
GATGATTGTTCTCCCAGCTGATGAATTGACTGTTTCGAGTAAACAAATTTTCCTAATCTTTCTGTTCAAGCGCCATCTAC	1.15 RPM ratio (pull-down/input)
